The source of these data is ChEMBL document CHEMBL1201862, “PubChem BioAssay data set” (2004).

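Cells were grown in 96-well plates and exposed to each compound for 48 hours at five concentrations; endpoints were interpolated linearly between bracketing concentrations, or set to the highest concentration if not reached. At the GI50, growth is halved.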 Active and inactive are the calls of the source. Cut-off read from the data, not from the text of the source: active = GI50 up to about 1.1 µM and inactive = higher.

The experiment relates to NCI-H322M. Nature of the experiment: NCI tumour cell line growth inhibition, 48 h.
Regarding `O=C(O)c1cc(CCc2cc(O)ccc2O)ccc1O`, the GI50 was inactive: > 100 µM.

Take `N#C/C(=C(\O)C(=O)O)c1ccc(-c2cccc3ccccc23)cc1`: the GI50 was inactive: > 100 µM.

For the molecule `c1cc(CSc2ncnc3[nH]cnc23)ccn1`, the GI50 is inactive: > 100 µM.

As for `CC1Oc2cc3c(-c4c(O)cc(O)c5c(O)c6c(cc45)OC(C)C(C)C6=O)c(O)cc(O)c3c(O)c2C(=O)C1C` (stereo not drawn), the GI50 is active: 0.371 µM. As for `Cc1cnc2sn(-c3ccc([N+](=O)[O-])cc3)c(=O)c2c1`, the GI50 was inactive: > 100 µM. For the molecule `O=Cc1ccc2c(c1)CC1(C2)Cc2ccc(C=O)cc2C1`, the GI50 was inactive: 52.2 µM.

In the case of `COC(=O)/C=C1/OC(c2ccccc2)=CC1=O`, the GI50 is inactive: 35 µM. For the molecule `CC(C)=NN/C(=N\c1ccc(Cl)cc1)NS(=O)(=O)c1ccc(C)cc1`, the GI50 was inactive: > 100 µM. For `C[C@]12CC[C@H]3[C@@H](CCC4=C(Br)C(=O)C=C[C@@]43O)[C@@H]1CCC2=O`, the GI50 was inactive: 95.1 µM. The result for `COC(=O)c1ccc(CCC2=CC(=O)C=CC2=O)cc1` reads inactive: 26.2 µM; that for `c1csc(-c2cc(-c3ccsc3)c(-c3cccs3)s2)c1`, inactive: 48.6 µM.

Consider `[N-]=[N+]=Nc1ccc(S(=O)(=O)Oc2cc(OS(=O)(=O)c3ccc(N=[N+]=[N-])cc3)cc(OS(=O)(=O)c3ccc(N=[N+]=[N-])cc3)c2)cc1`, for which the GI50 is inactive: > 100 µM. Turning to `CCCC(=O)OC(OC(=O)CCC)c1ccc([N+](=O)[O-])o1`, the GI50 is inactive: > 100 µM. The figure for `C[C@]12CC[C@H]3[C@@H](CCC4=C/C(=N/OCCN5CCCCC5)CC[C@@]43C)[C@@H]1CC[C@@H]2O` is inactive: 20.3 µM; for `C1CC2CN(CCCN3CCOCC3)C(C1)O2` (stereo not drawn) it is inactive: > 100 µM; for `CC1OC(O[C@H]2C3C=CO[C@@H](OC4OC(CO)C(O)C(O)C4O)C3[C@@]3(COC(=O)/C=C/c4ccccc4)O[C@@H]23)C(O)C(O)C1O` (stereo partly drawn) it is inactive: > 100 µM. The result for `CC(C)(C)OC(=O)NCC(=O)NC1c2ccsc2/C(=N/O)[C@H]1O` (stereo partly drawn) reads inactive: > 100 µM; that for `CCOc1cc(NC(C)=O)ccc1C(=O)NN1C(=O)C(Oc2ccccc2)C1c1ccc(O)c(OC)c1` (stereo not drawn), inactive: > 100 µM; that for `Nc1nc2c(c(=O)[nH]1)C(c1ccc(Cl)cc1)C=C(c1ccccc1)N2` (stereo not drawn), inactive: 37.2 µM. Consider `O=[N+]([O-])c1cc2ccc(N(CCO)CCO)nc2nc1N(CCO)CCO`, for which the GI50 is inactive: > 100 µM.

With `CCOC(=O)NNC(=O)NCCNC(=O)NNC(=O)OCC`, the GI50 was inactive: > 100 µM. In the case of `CC[C@H](C)c1occ2c(O)c(C(=O)O)c(=O)cc-2c1C`, the GI50 is inactive: 24.5 µM. The figure for `NCCNCC(O)CO` (stereo not drawn) is inactive: > 100 µM; for `O=C1CNc2cc(N3CCN(c4ccccc4)CC3)ccc2N1` it is inactive: > 100 µM. `Nc1nc(N)c2nnn(C[C@H]3CC[C@@H](CO)C3)c2n1`: the GI50 was inactive: > 100 µM. Take `Cc1nc2ccccc2c(=O)n1Nc1ccc(C(=O)O)cc1`: the GI50 is inactive: > 100 µM. The figure for `CCCOCN1COCN/C1=N\C#N` is inactive: > 100 µM. With `O=C(O)c1cc2ccccc2c2c1C(=O)c1ccccc1-2`, the GI50 is inactive: 78 µM. For `CC1(c2ccccc2Cl)C(C#N)C(=O)NC(=O)C1C#N` (stereo not drawn), the GI50 was inactive: > 100 µM. Take `COC(=O)C(C(=O)C(=O)Nc1nc2ccc(OC)cc2s1)c1cnc2ccccc2n1` (stereo not drawn): the GI50 is inactive: > 100 µM. The figure for `COc1ccc(CCNC(=O)Cc2cc(OC)c(OC)cc2CO)cc1OC` is inactive: > 100 µM; for `N=C(N)N/N=C\c1c(-c2cccc([N+](=O)[O-])c2)nc2sc(Cl)cn12` it is inactive: 2.16 µM. The figure for `N#Cc1ccc(Oc2nc3ccccc3nc2-c2ccccc2)cc1` is inactive: > 100 µM; for `Cn1c(S)nnc1-c1csc(-c2ccc(Cl)cc2)n1` it is inactive: 33.2 µM.

For `CCOC(=O)C1CCC(=O)N1C(=O)c1ccccc1` (stereo not drawn), the GI50 is inactive: > 100 µM. As to `CC(C)(C)C(C#N)(C#N)c1ccc(C(C#N)(C#N)C(C)(C)C)nn1`, the GI50 was inactive: > 100 µM. With `Cc1[nH]nc(C(=O)N/N=C/c2cccs2)c1/N=N\N(C)C`, the GI50 is inactive: 38.5 µM. `C=CCOCCCCC(C(C)=O)C(=O)OC` (stereo not drawn): the GI50 is inactive: > 100 µM. As for `N=C(N)SCc1ccc2c(c1)S(=O)(=O)c1ccccc1O2`, the GI50 was inactive: 20.9 µM. The figure for `Cc1ccc(/C=C2/N/C(=N\N=C/C(O)C(O)C(O)CO)NC2=O)cc1` (stereo not drawn) is inactive: > 100 µM; for `Cc1ccc(-n2nnc3c(NNc4ccccc4)n[nH]c(=O)c32)cc1` it is inactive: > 100 µM; for `CC1=Nc2c(C#N)ncn2N=C(C)C1` it is inactive: > 100 µM. Turning to `CCOC(=O)CC1(c2cccc3ccccc23)OC(=O)c2ccccc21` (stereo not drawn), the GI50 is inactive: > 100 µM. Take `O=C1CSC(c2ccccc2)N1c1nc2cc3sc(N4C(=O)CSC4c4ccccc4)nc3cc2s1` (stereo not drawn): the GI50 was inactive: 30.2 µM. Take `CCOC(=O)c1csc(NC(=O)CCN2CCN(C)CC2)n1`: the GI50 was inactive: > 100 µM. As to `COC(=O)[C@@H]1[C@@H](c2cccc(Cl)c2)[C@H](C(=O)OC)C2(C[C@@]1(C)O)NCCS2` (stereo partly drawn), the GI50 is inactive: > 100 µM. The figure for `Cc1ccc(N2C3=C(CC4=C2CC(C)(C)CC4=O)C(=O)CC(C)(C)C3)cc1` is inactive: > 100 µM; for `C[C@@H]1OC(=O)C[C@H]2CC(=O)N(CCC3CN(C(=O)c4ccccc4)c4ccccc43)C[C@@H]21` (stereo partly drawn) it is inactive: > 100 µM; for `C[C@@]1(CCCCCCCCCCc2ccccc2)C[C@@]2(C)OC(=O)C[C@H]2OO1` it is inactive: 2.47 µM. The result for `CN(CCO)/N=N/c1n[nH]cc1C(N)=O` reads inactive: > 100 µM; that for `c1ccc2c(c1)ccc1nc3ccccn3c12`, inactive: > 100 µM. In the case of `Cc1nc(C(N)=S)sc1C(=O)/C=C/c1cccc(O)c1`, the GI50 was inactive: > 100 µM. The result for `O=C(NCCCCl)c1c(O)c2ccccc2[nH]c1=O` reads inactive: > 100 µM; that for `CC(=O)C(=[N+]=[N-])C(=O)N(C)CCC#N`, inactive: > 10 µM.

Consider `CCOC(=O)CCC(NC(=O)c1ccc(Nc2nc3ccccc3n3cccc23)cc1)C(=O)OCC` (stereo not drawn), for which the GI50 was inactive: 11 µM.

On to `O=C1C(=O)N(c2cccc(C(F)(F)F)c2)C(=O)C(=O)C1c1nc2ccccc2s1`, for which the GI50 was inactive: > 100 µM. With `CC(C)=CCc1c(O)c(CC=C(C)C)c2oc(-c3ccc(O)cc3O)c(CC=C(C)C)c(=O)c2c1O`, the GI50 is inactive: 12.8 µM. In the case of `O=[N+]([O-])c1cccc2nc3ccccc3c(NCCCCCNc3c4ccccc4nc4cccc([N+](=O)[O-])c34)c12`, the GI50 was active: 0.112 µM. Take `NCCSS(=O)(=O)CCN`: the GI50 is inactive: > 100 µM. Consider `Cc1ccc(S(=O)(=O)N2CCN(CCO)CCN(S(=O)(=O)c3ccc(C)cc3)CCN(CCO)CC2)cc1`, for which the GI50 is inactive: 14.7 µM. The figure for `CC(=O)OC1CC2CCC1(C)C2(C)C` (stereo not drawn) is inactive: > 100 µM. For the molecule `CC(C)(C)c1cc2c3c(c1)c(=O)c1cccc4c(O)c5cccc(c2=O)c5c-3c41`, the GI50 was inactive: 50 µM. As for `NC(CSCc1ccc(I)cc1)C(=O)O` (stereo not drawn), the GI50 was inactive: 80.4 µM. The result for `COC(=O)C1=C(C(=O)OC)SC(=C2SC3=C(SC(=C4SCCS4)S3)S2)S1` reads inactive: > 100 µM; that for `COc1cccc(C2c3cc4c(cc3OC(NNc3ccccc3)C2C)OCO4)c1OC` (stereo not drawn), inactive: 13.9 µM; that for `COC(=O)c1ccc2n1C1CC3CC(CC2C3)C1`, inactive: > 100 µM.

`Cc1c(C(=O)CSc2nc3cc([N+](=O)[O-])ccc3[nH]2)c(=O)n(-c2ccccc2)n1C`: the GI50 is inactive: > 100 µM. As for `COc1cc(/C=C/C(=O)c2sc(NNC(C)=O)nc2C)ccc1O`, the GI50 is inactive: > 100 µM.

For `C1=N\CCN2CCN(CC/N=C\c3ccc(cc3)OCc3cccc(n3)COc3ccc/1cc3)CC2`, the GI50 was inactive: > 50 µM. Consider `C1CCN(c2nc(=[N+]3CCCCC3)ss2)CC1`, for which the GI50 was inactive: > 100 µM.

With `Cc1cccc(C(C)C)c1NC(=O)C(=O)CC(=O)c1sc(Nc2ccccc2Cl)nc1C`, the GI50 is inactive: 57.9 µM. As to `COc1cc(Br)c(CC2=NCCc3cc(OC)c(OC)cc32)cc1OC`, the GI50 is inactive: 87.1 µM.

Turning to `O=C(Nc1ccc(N2C(=O)CSC2c2cccs2)cc1)c1ccc(N2C(=O)CSC2c2cccs2)cc1` (stereo not drawn), the GI50 is inactive: > 100 µM. The result for `O=C1C=CC(=O)c2c(NCC3CC3)ccc(NCC3CC3)c21` reads inactive: > 100 µM. In the case of `Cc1cccc(C)c1NC(=O)C(=O)C(C#N)c1ccccc1Cl` (stereo not drawn), the GI50 was inactive: > 100 µM.

In the case of `Cc1cc(S(=O)(=O)O)ccc1/N=N/c1ccc(/N=N/c2c(O)ccc3ccccc23)c(C)c1`, the GI50 is inactive: > 100 µM. On to `COC(=O)[C@@]12OC[C@]34C([C@@H](O)C1O)[C@@]1(C)CC(=O)C(O)=C(C)C1C[C@H]3OC(=O)[C@H](OC(=O)CC(C)C(F)(F)F)[C@H]42` (stereo partly drawn), for which the GI50 is active: 0.401 µM.

Turning to `CC1=C[C@H](C[C@]2(C)c3c(c4c(C)cccc4oc3=O)O[C@@H]2C)OC1=O`, the GI50 is inactive: > 100 µM.

Turning to `COC(=O)[C@@]12C3=NO[C@]1(C(=O)OC)C(O[Si](C)(C)C(C)(C)C)[C@@H](OC(C)=O)[C@@H](OC(C)=O)[C@@H]2[C@@H](OCc1ccccc1)CC3` (stereo partly drawn), the GI50 was inactive: > 100 µM. In the case of `COc1cc(C2c3cc4c(cc3[C@@H](Nc3ccc5c(c3)OCO5)C3COC(=O)[C@H]23)OCO4)cc(OC)c1O` (stereo partly drawn), the GI50 is inactive: 5.24 µM. On to `CCOC(=O)c1cn2c(ccc3sc4ccccc4c(=O)c32)n1`, for which the GI50 was inactive: 39.4 µM. On to `COc1c(O)cc(C(=O)O[C@@H]2Cc3c(O)cc(O)cc3O[C@@H]2c2cc(O)c(O)c(O)c2)cc1O`, for which the GI50 is inactive: 25.7 µM. Turning to `COc1ccc(C2Cc3cc(OC)c(OC)c(OC)c3C2)cc1` (stereo not drawn), the GI50 was inactive: 37.2 µM.
